Test results taken from US20130317027A1, “COMPOUNDS AND THERAPEUTIC USES THEREOF” (Myrexis, Inc, priority 2010, published 2013).
The source gives many values for each of these; only a part stands here.

Tested on: cell lines (cancer, normal and primary cells)
Assay: NA Rescue assay (cytotoxicity with nicotinic acid added)
Type: cell-based
Procedure: Cell lines were treated with a fixed dose of Exemplary Compound A and screened for NA rescue and Naprt1 expression by immunoblotting and quantitative RT-PCR (Table 7). […] The 176 cell lines included 5 normal (non-cancerous) cells and 3 primary cells (italicized in the table), all of which rescued. Naprt1 was quantified by western blotting and q-RT-PCR in 164 and 123 of the 176 cell lines, respectively. […] A statistically significant (p value <0.0001) correlation existed between NA rescue phenotype and Naprt1 protein or mRNA expression levels.
Additional cancer cell lines were treated with Exemplary Compounds A, C, D, E, F, G and H (identified below) (Table 8). The NA rescue phenotype of a particular cancer cell line was maintained for all Nampt inhibitors tested.

Compound: O=C(NCc1cccnc1)Nc1ccc(COc2ccccc2-c2ccccc2)cc1 [Exemplary Compound A]
- NA rescue (A172 cells, glioma): no
- NA rescue (A2058 cells, melanoma (lymph node metastasis), fixed dose): yes
- NA rescue (AMO-1 cells, myeloma, fixed dose): no
- NA rescue (CCF-STTG1 cells, brain, astrocytoma, fixed dose): yes
- NA rescue (COLO320DM cells, colorectal, fixed dose): no
- NA rescue (COLO320HSR cells, colorectal, fixed dose): no
- NA rescue (COLO-205 cells, colorectal): yes
- NA rescue (DB cells, DLBCL (NHL)): partial
- NA rescue (DLD-1 cells, colorectal, fixed dose): yes
- NA rescue (DMS-114 cells, SCLC): yes
- NA rescue (HCC827 cells, NSCLC): no
- NA rescue (HCC1937 cells, breast, fixed dose): yes
- NA rescue (HCC2998 cells, colorectal, fixed dose): yes
- NA rescue (HCT-8 cells, colorectal, fixed dose): yes
- NA rescue (HCT-15 cells, colorectal, fixed dose): yes
- NA rescue (HCT-116 cells, colorectal): yes
- NA rescue (HL-60 cells, myelogenous leukemia, fixed dose): yes
- NA rescue (HT29 cells, colorectal): yes
- NA rescue (HT-1080 cells, fibrosarcoma): no
- NA rescue (Hepa1-6 cells, mouse, hepatoma, fixed dose): partial
- NA rescue (Hs93.T cells, fibrosarcoma, fixed dose): yes
- NA rescue (Hs414.T cells, fibrosarcoma, fixed dose): yes
- NA rescue (K562 cells, myelogenous leukemia (CML), fixed dose): yes
- NA rescue (K562 cells, myelogenous leukemia, fixed dose): yes
- NA rescue (KINGS-1 cells, brain, anaplastic astrocytoma (glioma), fixed dose): no
- NA rescue (KM12 cells, colorectal, fixed dose): yes
- NA rescue (KMS-11 cells, myeloma, fixed dose): yes
- NA rescue (KU812 cells, myelogenous leukemia, fixed dose): no
- NA rescue (LS174T cells, colorectal, fixed dose): yes
- NA rescue (MALME-3M cells, melanoma (lung metastasis), fixed dose): yes
- NA rescue (MC/CAR cells, myeloma, fixed dose): yes
- NA rescue (MCF7 cells, breast, fixed dose): yes
- NA rescue (MDA-MB-231 cells, breast, fixed dose): yes
- NA rescue (MDA-MB-436 cells, breast, fixed dose): yes
- NA rescue (MEG-01 cells, myelogenous leukemia (CML), fixed dose): yes
- NA rescue (MLE-12 cells, mouse, lung, fixed dose): no
- NA rescue (MOLM-13 cells, myelogenous leukemia, fixed dose): yes
- NA rescue (MV-4-11 cells, myelogenous leukemia, fixed dose): yes
- NA rescue (MiaPaCa2 cells, pancreatic): no
- NA rescue (NB-4 cells, myelogenous leukemia, fixed dose): yes
- NA rescue (NCI-H82 cells, SCLC): yes
- NA rescue (NCI-H460 cells, NSCLC): no
- NA rescue (NCI-H522 cells, NSCLC): no
- NA rescue (NCI-H929 cells, multiple myeloma): no
- NA rescue (NCI-H1650 cells, NSCLC): no
- NA rescue (NCI-H2030 cells, lung (NSCLC), fixed dose): yes
- NA rescue (NCI-H2110 cells, lung (NSCLC), fixed dose): yes
- NA rescue (NCI-H2228 cells, lung (NSCLC), fixed dose): yes
- NA rescue (NCI-N87 cells, gastric): yes
- NA rescue (NIH-3T3 cells, mouse, fibroblast, fixed dose): no
- NA rescue (NOMO-1 cells, myelogenous leukemia, fixed dose): partial
- NA rescue (OCI-Ly19 cells, DLBCL (NHL)): yes
- NA rescue (OPM-2 cells, multiple myeloma): no
- NA rescue (OVCAR-8 cells, ovarian): yes
- NA rescue (RAW264.7 cells, mouse, leukemia, fixed dose): no
- NA rescue (RKO cells, colorectal, fixed dose): yes
- NA rescue (SF-295 cells, glioma): no
- NA rescue (SK-BR-3 cells, breast, fixed dose): yes
- NA rescue (SK-CO-1 cells, colorectal, fixed dose): yes
- NA rescue (SKM-1 cells, myelogenous leukemia, fixed dose): partial
- NA rescue (SNB-75 cells, brain, astrocytoma, fixed dose): yes
- NA rescue (SNU-C2B cells, colorectal, fixed dose): yes
- NA rescue (SR cells, lymphoma, fixed dose): partial
- NA rescue (SU-DHL-4 cells, DLBCL (NHL)): partial
- NA rescue (SU-DHL-5 cells, DLBCL (NHL)): no
- NA rescue (SU-DHL-8 cells, lymphoma, fixed dose): partial
- NA rescue (SUP-M2 cells, lymphoma, fixed dose): partial
- NA rescue (SW480 cells, colorectal, fixed dose): yes
- NA rescue (SW620 cells, colorectal, fixed dose): yes
- NA rescue (SW684 cells, fibrosarcoma, fixed dose): yes
- NA rescue (SW872 cells, fibrosarcoma, fixed dose): yes
- NA rescue (SW-48 cells, colorectal, fixed dose): yes
- NA rescue (U266 cells, myeloma, fixed dose): no
- NA rescue (U-87MG cells, glioma): no
- NA rescue (UACC-257 cells, melanoma, fixed dose): yes
